Experimental data taken from PMC6919601, “Identification of Plasmodium dipeptidyl aminopeptidase allosteric inhibitors by high throughput screening” (PLoS ONE, 2019).
Out of some 110,000 compounds screened, about 230 (0.21%) showed an effect of 50% or more. The list shows a part of the results.

Molecular target: DPAP1 (Plasmodium falciparum, UniProt Q8IIJ9)
Test: primary screen, percent inhibition; read by cleavage of a fluorogenic dipeptide substrate; higher = more effect of the substance
Set-up: species or system P. falciparum D10 trophozoite lysates; single well
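Further: 30 min substrate incubation versus DMSO and 10 µM JCP410 controls.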

DPAP1, sequence (Q8IIJ9 whole entry, looked up): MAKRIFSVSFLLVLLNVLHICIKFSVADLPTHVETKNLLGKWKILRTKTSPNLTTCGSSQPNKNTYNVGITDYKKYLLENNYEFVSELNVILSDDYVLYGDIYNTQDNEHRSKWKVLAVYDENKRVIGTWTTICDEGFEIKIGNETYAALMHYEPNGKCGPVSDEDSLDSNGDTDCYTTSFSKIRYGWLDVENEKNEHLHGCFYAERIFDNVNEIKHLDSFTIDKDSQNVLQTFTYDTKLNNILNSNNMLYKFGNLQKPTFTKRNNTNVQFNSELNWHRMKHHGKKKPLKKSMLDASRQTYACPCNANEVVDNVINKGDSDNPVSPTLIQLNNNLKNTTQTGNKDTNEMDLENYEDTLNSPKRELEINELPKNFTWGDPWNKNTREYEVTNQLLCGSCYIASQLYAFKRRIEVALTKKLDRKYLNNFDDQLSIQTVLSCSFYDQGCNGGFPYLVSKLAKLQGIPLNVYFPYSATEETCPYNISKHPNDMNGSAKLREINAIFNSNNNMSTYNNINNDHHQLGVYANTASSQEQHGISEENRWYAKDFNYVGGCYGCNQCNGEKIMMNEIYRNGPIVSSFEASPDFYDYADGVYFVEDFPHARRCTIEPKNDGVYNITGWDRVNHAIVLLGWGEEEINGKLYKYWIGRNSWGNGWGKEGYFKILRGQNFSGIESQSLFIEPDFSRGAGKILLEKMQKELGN

| SMILES | % Inhibition @ 10 uM |
| --- | --- |
| Nc1c(N2CCOCC2)cc(O)c2c1C(=O)c1ccccc1C2=O | -0.0953% |
| CS(=O)(=O)N(CC(=O)NCC1CCCO1)c1cccc(F)c1 (stereo not drawn) | -5.07% |
| Cc1ccc(-n2nnc(-c3nc(-c4ccccc4C)no3)c2N)c(C)c1 | -2.72% |
| CCC(Oc1ccccc1)C(=O)NCc1ccc(C)cc1 (stereo not drawn) | -4.14% |
| Clc1cccc(-c2nnc3sc(C4COc5ccccc5O4)nn23)c1 (stereo not drawn) | 4.47% |
| CCOc1cc(/C=C2\SC(=N)N(c3nccs3)C2=O)ccc1OCC(N)=O | -1.02% |
| CCOC(=O)N1CCN(C(=O)c2ccc(CNS(=O)(=O)c3ccc(OC)cc3)cc2)CC1 | -7.16% |
| Cc1c(C(=O)NC(C)c2ccccc2)sc2nc3n(c(=O)c12)CCCCC3 (stereo not drawn) | -1.38% |
| COc1ccc(Cc2nnc(NC(=O)C(C)(C)Oc3ccc(Cl)cc3)s2)cc1 | 2.25% |
| O=C(CN1C(=O)c2cccc3cccc1c23)NCCC1=CCCCC1 | -3.49% |
| Cc1nn2c(=O)cc(COc3ccc(/C=C(\C#N)C(N)=O)cc3)nc2s1 | -2.19% |
| CCN(CC)C(=O)C1CCCN(Cc2ccc(F)cc2)C1 (stereo not drawn) | -1.92% |
| Cc1cccc(N(CC(=O)N2CCN(c3ccccc3)CC2)S(=O)(=O)c2ccccc2)c1C | 2.44% |
| COc1ccc(S(=O)(=O)Nc2ccccc2C(=O)NC(C)c2ccccc2)cc1OC (stereo not drawn) | 4.57% |
| Cc1nc2sccn2c(=O)c1S(=O)(=O)N1CCN(Cc2ccccc2)CC1 | -0.538% |
| CCN(CC)C(=O)COc1ccc2oc(C)c(C(=O)OC)c2c1 | 0.487% |
| CSC1=NSC2=NC(=O)/C(=C\c3ccc(OS(C)(=O)=O)cc3)C(=N)N12 | -1.58% |
| O=C(c1ccco1)N(Cc1cccc(Cl)c1)C1CCS(=O)(=O)C1 (stereo not drawn) | -0.469% |
| CCOc1ccccc1/C=C/C(=O)NCC(=O)N1CCC(N(C)C2CCCCCC2)CC1 | 0.689% |
| COc1ccc(-c2nnn(Cn3nnc4c(O)nc(Cc5ccc(F)cc5)nc43)n2)cc1OC | -1.47% |
| COc1ccc(Nc2nc(N3CCNCC3)nc(C)c2[N+](=O)[O-])cc1 | 1.04% |
| Nc1c(C(=O)O)cnn1-c1ccccc1 | 0.266% |
| COc1ccc(C(=O)NCCCN2CCOCC2)cc1 | 0.266% |
| O=C(CSc1nc(O)cc(-c2ccccc2)n1)NC1CCCCC1 | 3.72% |
| CCN(CC)C(=O)Cn1cc(S(=O)(=O)Cc2ccc(F)cc2)c2ccccc21 | 1.35% |
| Cc1c(C2(c3c(C)n(C)n(-c4ccccc4)c3=O)C(=O)N(C)c3ccc(Br)cc32)c(=O)n(-c2ccccc2)n1C | 5.29% |

| SMILES | % Inhibition @ 10 uM |
| --- | --- |
| CN(C)CCN(C(=O)c1ccc2ncsc2c1)c1nc2ccc(Br)cc2s1 | -6.76% |
| COc1ccc(C=C2C(=O)OC(c3ccccc3)OC2=O)c(OC)c1OC (stereo not drawn) | -1.92% |
| Cc1ccc2c(CNCCc3ccc(Cl)cc3)c(C(=O)O)[nH]c2c1 | 0.16% |
| O=C1c2ccccc2C(=O)C1(c1ccccc1)N1CCOCC1 | -0.664% |
| CC(=O)c1ccc2c(c1O)C=CC(C)(C)O2 | 5.09% |
| CCCNC(=O)c1cc(-c2cccc(Cl)c2)on1 | -10% |
| COc1cc(C=C2C(=O)N(C)C(=O)N(C)C2=O)ccc1OCCOc1ccccc1 | 6.12% |
| COC(=O)C1=C(C)NC(=O)CC1c1cc(OC)c(OC)cc1Br (stereo not drawn) | 13.2% |
| Cc1cccc2c(C(=O)N3CCCCC3)cc(-c3ccccc3)nc12 | -0.615% |
| Cc1ccsc1C(=O)NC12CC3CC(CC(C3)C1)C2 | -1.65% |
| CCc1c(O)nc(SC(C)CC)n(-c2ccccc2)c1=O (stereo not drawn) | 0.135% |
| CCOC(=O)N1CCC(NC(=O)c2ccc(CS(=O)c3cccc(C)c3)o2)CC1 (stereo not drawn) | 2.83% |
| COCCNc1cnn(C23CC4CC(CC(C4)C2)C3)c(=O)c1Cl | 1.72% |
| CC1CCC(Nc2c(-c3cccs3)[nH]c3c(C#N)cnn23)CC1 (stereo not drawn) | 2.25% |
| CCOC(=O)c1cc2c(nc1C)-c1ccccc1/C2=N\C1CCCCC1 | 6.5% |
| COc1cccc(OCC(O)Cn2cnc3cc(C)c(C)cc32)c1 (stereo not drawn) | -15.2% |
| N#C/C(=C/c1cccs1)S(=O)(=O)c1ccccc1 | 4.65% |
| CCC(Sc1nc2c(sc3ccccc32)c(=O)n1CCCOC)C(=O)N1CCOCC1 (stereo not drawn) | 0.4% |
| COc1ccc(-c2nc(-c3cc4cc(C)ccc4nc3O)no2)cc1OC | -5.38% |
| Cc1cc(C)cc(OCC(=O)Nc2ncc(C)s2)c1 | 11.5% |
| c1ccc(-c2nc(NC3CCCCC3)c3ccccc3n2)cc1 | -3.21% |
| Cc1ccc(-n2c(=O)[nH]c3ccccc3c2=O)cc1 | 1.88% |
| COc1cc(C)c(CNc2cc(C)ccc2OC)cc1C | -9.1% |
| CCN(CC)S(=O)(=O)c1ccc(Br)c(C(=O)O)c1 | -5.94% |
| CCc1cc(=O)oc2c3c(ccc12)OCN(Cc1ccccc1Cl)C3 | -2.48% |
| COc1cc(C(=O)NC(C)c2ccc(O)cc2)nc2ccccc12 (stereo not drawn) | -2.19% |

| SMILES | % Inhibition @ 10 uM |
| --- | --- |
| CC(C)CNC(=O)c1ccc(Cn2cc(Br)cn2)o1 | 3.8% |
| Cc1ccc2c(c1)cc1c(=O)n(CC(=O)NCc3ccccc3)nc(C)n12 | -9.45% |
| CS(=O)(=O)N(Cc1ccc(C(=O)NCc2ccccc2Cl)cc1)c1ccccc1 | -15.1% |
| COc1ccc(C2CC(C(F)(F)F)n3nc(C(=O)NCc4cccs4)cc3N2)cc1OC (stereo not drawn) | -0.478% |
| COc1ccc(CN2CC(C(=O)NCCCN3CCC(Cc4ccccc4)CC3)CC2=O)cc1 (stereo not drawn) | 1.62% |
| COc1ccc(-c2cc(C(F)F)n3ncc(C(=O)NC(C)C4CCCO4)c3n2)cc1 (stereo not drawn) | -0.958% |
| CCOc1ccc(-[n+]2c(-c3ccccc3)cn3c2CCC3)cc1 | 4.41% |
| O=C(NCc1nnc(SCC(=O)N2CCCC2)o1)c1cccs1 | -9.23% |
| CCOc1ccccc1NC(=O)c1ccc(Br)cc1 | -1.22% |
| Nc1ccc(C(=O)Nc2ccncc2)c(C(=O)O)c1 | 0.214% |
| CCC(=O)NS(=O)(=O)c1ccc(NC(=O)c2ccccc2Cl)cc1 | 3.53% |
| Clc1ccc(N2CCN(Cc3cccc(Br)c3)CC2)cc1 | -0.405% |
| CCOC(=O)c1c(C)oc2ncnc(N3CCC(c4ccccc4)C3)c12 (stereo not drawn) | -5.76% |
| Cc1ccc(NC(=O)CN(c2ccc(F)cc2)S(C)(=O)=O)cc1C | -3.25% |
| Cc1cccc(NC(=O)CN2C(=O)C3C4C=CC(C5CC45)C3C2=O)c1 (stereo not drawn) | -7.9% |
| CCOc1cc(-c2c(C)c(CC)nc(N)c2C#N)ccc1O | -4.21% |
| CCCC(=O)n1nc(-c2ccco2)nc1NCc1ccc(Cl)cc1 | -5.08% |
| Cc1ccc(CN2CCN(CC(=O)N3CCC4(CC3)OCCO4)C2=O)cc1 | -5.06% |
| COc1ccc(-n2c(C(F)(F)F)nc3ccccc3c2=O)cc1 | -0.949% |
| CCOC(=O)c1c(C)oc2ncnc(NCc3ccccc3OCC)c12 | 1.92% |
| Cc1ccc(Cl)cc1-n1ncc2c(NCC(=O)O)ncnc21 | -1.62% |
| CN1CCN(C(=O)NCCC2CCCCC2)CC1 | -0.132% |
| CN(CCCNC(=O)Cn1ncc2c3ccccc3n(C)c2c1=O)Cc1ccccc1 | -0.23% |
| Cc1ccc(S(=O)(=O)N2CCN(C(=O)OC(C)C)CC2)cc1 | -0.48% |
| O=C(Nc1cccc(Cl)c1)Nc1ccc(Cl)c(C(=O)O)c1 | 1.64% |
| CCc1ccc(-c2cc(C)no2)cc1S(=O)(=O)N1CCC(C)CC1 | -2.5% |

| SMILES | % Inhibition @ 10 uM |
| --- | --- |
| Cc1csc2c(=O)n3c(nc12)CCCCC3 | 5.37% |
| c1cc2nsnc2c2c1Nc1nc3nonc3nc1N2 | 1.31% |
| COc1cccc(C2CC(=O)NC3=C2C(=O)CCC3)c1OC (stereo not drawn) | -4.53% |
| CC(C)(C)C1CCc2c(sc3nnn(CC(=O)c4cccs4)c(=O)c23)C1 (stereo not drawn) | 2.41% |
| NC(=O)CSc1ccc(-c2cccs2)nn1 | -2.26% |
| COc1cc(NS(=O)(=O)c2ccc(NC(=O)c3ccc(Br)o3)cc2)nc(OC)n1 | 9.05% |
| CC(C)(CNS(=O)(=O)c1ccc(Cl)cc1)CNS(=O)(=O)c1ccc(Cl)cc1 | 0.331% |
| O=C(O)c1ccccc1-c1ncc(-c2ccccc2)o1 | -4.06% |
| COc1ccc(S(=O)(=O)n2nc(-c3ccc(C)cc3)cc2N)cc1OC | -2.19% |
| CC(C)Oc1ccc(Br)cc1/C=C1\SC(N)=NC1=O | -9.93% |
| O=C(O)c1cc(O)ccc1NC(=O)c1cccc2ccccc12 | 19.2% |
| O=C(Cn1ncn2cccc2c1=O)N1CCCC1 | -4.93% |
| CCOC(=O)c1ccc(CS(=O)(=O)c2ccc(Cl)cc2)o1 | -0.657% |
| COc1ccccc1-c1cc(C(=O)NC2CCCC2)no1 | -2.65% |
| CC1=NN(C(=O)c2ccccc2Cl)C(O)(c2cccnc2)C1 (stereo not drawn) | 5.39% |
| CC(C)Cc1ccc2c(N)c(C(=O)O)sc2n1 | 15.8% |
| N#Cc1cc2c(nc1SCC(=O)NCCc1ccccc1)CCC2 | -3.16% |
| CC(C)(C)c1ccccc1OCCCCN1CCCCC1 | -2.12% |
| CCCN1CCC(N2CCN(c3ccccc3F)CC2)CC1 | 1.29% |
| CCOC(=O)c1c(C)n(C)c2cc(Br)c(C(=O)OC)cc12 | 5.77% |
| COc1ccc(C2=NN(CCC(=O)N3CCCCC3)C(=O)CC2)cc1 | -8.34% |
| CC1=C(C(=O)Nc2ccccc2F)C(c2ccco2)C(C#N)=C(SCC(=O)NC(C)(C)C)N1 (stereo not drawn) | 0.536% |
| CCOc1ccccc1N(CC(=O)NC1CCCC1)S(C)(=O)=O | 3.74% |
| CCn1c(=O)c2sccc2n2c(CCCC(=O)NCCc3ccc(Cl)cc3)nnc12 | -3.01% |
